# Source: the supplement of paper PMC3334620
# Over roughly 33,000 sequences, “E-score (-0.5 to 0.5)” has its median near -0.041; the highest 2% begin near 0.37. This is one part of the list.
# Molecular target: T1, Ecm22 (UniProt Q05958)
# T1 sequence: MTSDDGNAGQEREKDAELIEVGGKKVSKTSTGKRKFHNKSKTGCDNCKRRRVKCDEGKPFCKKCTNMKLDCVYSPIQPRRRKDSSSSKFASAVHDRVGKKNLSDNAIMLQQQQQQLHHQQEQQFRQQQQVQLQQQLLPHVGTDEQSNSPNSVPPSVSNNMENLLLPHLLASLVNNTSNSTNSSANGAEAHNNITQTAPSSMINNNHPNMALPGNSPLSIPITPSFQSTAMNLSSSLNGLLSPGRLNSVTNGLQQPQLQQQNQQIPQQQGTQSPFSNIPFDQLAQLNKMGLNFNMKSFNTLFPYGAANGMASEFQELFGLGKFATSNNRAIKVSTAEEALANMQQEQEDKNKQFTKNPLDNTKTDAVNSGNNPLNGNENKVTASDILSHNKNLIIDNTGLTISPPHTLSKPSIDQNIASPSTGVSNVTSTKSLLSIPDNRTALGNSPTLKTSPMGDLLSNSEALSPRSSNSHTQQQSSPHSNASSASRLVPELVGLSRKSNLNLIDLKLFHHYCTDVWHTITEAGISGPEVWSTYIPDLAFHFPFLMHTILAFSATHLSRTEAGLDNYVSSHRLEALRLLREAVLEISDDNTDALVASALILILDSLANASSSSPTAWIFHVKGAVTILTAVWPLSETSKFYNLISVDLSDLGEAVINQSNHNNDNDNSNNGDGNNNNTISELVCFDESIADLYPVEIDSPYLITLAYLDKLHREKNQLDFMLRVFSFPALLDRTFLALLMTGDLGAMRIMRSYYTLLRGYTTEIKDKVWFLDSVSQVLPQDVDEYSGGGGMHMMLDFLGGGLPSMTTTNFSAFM
# Experiment: PBM E-score (8-mer binding enrichment) (E-score (-0.5 to 0.5)); higher = stronger / more preferred TF binding; most listed sequences are background and not binding sites
# Details: protein concentration: 200 nM; construct: GST-full length
# Outline: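 Full-length yeast transcription factors or their DNA-binding domains, GST-tagged and expressed with PURExpress, were applied at about 100-200 nM to universal all-10-mer Agilent arrays. These arrays had been made double-stranded by primer extension on fresh or once-stripped slides. Detection used fluorescent anti-GST, normalisation used masliner, and E-scores for ungapped eight-base words pooled with reverse complements came from the Universal PBM Analysis Suite.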
row,Sequence,PBM E-score
1,CGATAGAC,-0.00215
2,GTCTCCAA,-0.0632
3,CCGACGTA,0.208
4,CCTCCTAC,-0.294
5,GTACTAAA,0.229
6,CCCCGGAC,-0.121
7,CACCCGGA,0.0338
8,CCACTCAG,-0.306
9,CTTACAGC,-0.147
10,CAACGGAG,-0.0525
11,ATCGCCCC,-0.0764
12,CTTACTAC,0.118
13,CAGGACTG,-0.233
14,GGAGGGAC,-0.101
15,TCCCTCGA,-0.0263
16,CGAACGCG,0.198
17,GCAACTAA,0.0306
18,CGTTTCGC,0.312
19,AGTAAACA,0.0411
20,AGGCCTCA,-0.335
21,CAAGAAGC,0.0176
22,GTCGTCTA,0.183
23,ACTAACGA,0.264
24,CGTCGTGA,0.117
25,GCCCCGCC,-0.0475

row,Sequence,PBM E-score
1,CCTTCATA,-0.0479
2,AGGGGACT,-0.258
3,GTGCGCAA,-0.0309
4,GAGTTAGC,0.0305
5,ACCTTTGG,-0.304
6,GAAGCCCC,-0.00105
7,GAAATACC,0.0229
8,AGGCAGGG,-0.0924
9,AGGAGAGG,-0.231
10,CAGCGAGC,0.125
11,ATAGGAAT,-0.00546
12,CAGCATGG,-0.0597
13,ATATGACC,-0.0946
14,CTTCATGA,-0.158
15,ACGCACCC,-0.096
16,CTACGTTC,0.182
17,ATCAGAAT,-0.0284
18,CTCTGTAC,0.0079
19,GAACGCTC,0.0973
20,AGCCCGCC,-0.00591
21,AGCAATCA,-0.0791
22,AATAATTC,0.0898
23,ATCCCTGC,-0.313
24,AAATTAGG,-0.0791
25,AGGACTAC,-0.186

row,Sequence,PBM E-score
1,ACCCAGAA,-0.182
2,GCCTCTGA,-0.28
3,AAGAGTCC,-0.296
4,ATTTAGGA,0.0407
5,CAGGCACC,-0.068
6,ATAATGAA,0.15
7,CTCGTCAG,0.104
8,CCGCTCTC,-0.165
9,ACATGCCA,0.096
10,CGCCTTGC,-0.344
11,TGACGTAA,0.0171
12,AGGATTTG,-0.0619
13,CGTCTTAG,-0.197
14,ATAGCAGG,0.0413
15,AACTCAGG,-0.194
16,CGCTGTAG,-0.136
17,ACGCGGAG,0.0454
18,CGGTCCCC,0.0268
19,GACCAGAC,-0.0282
20,AGGAGATA,-0.144
21,GGGCCGTA,0.333
22,CTACGCAG,0.0099
23,CGTCTGGC,-0.0912
24,ATCGCAGC,0.088
25,GCTGTAAA,-0.0512

row,Sequence,PBM E-score
1,AAACGGGG,0.361
2,ATACACAA,0.221
3,CCGGCAGC,-0.288
4,AGGCTCCG,0.1
5,GAATTTAA,0.122
6,GTCGCCAA,0.0425
7,TCACAACA,0.0665
8,AGGTACAG,-0.185
9,AGTGGCTC,0.153
10,CATCTGTA,-0.0867
11,AAGAACTA,-0.077
12,CACCAACA,-0.158
13,GATATTGA,-0.14
14,TCGAGTCA,-0.147
15,TAGAAACA,-0.0127
16,ATATGACA,0.109
17,CTACCACA,-0.265
18,ATGTTGGG,-0.353
19,CATGGCGA,-0.136
20,CCACTCAA,0.0203
21,CCGCCTGC,-0.129
22,GGGGGAGA,-0.222
23,ATTCGACA,0.0989
24,AGCCGCGG,0.19
25,AGGACGGC,-0.114

row,Sequence,PBM E-score
1,ACACCTTC,-0.0274
2,GCTAGGCA,-0.326
3,AGGAAGGA,-0.274
4,CGGGTTCC,0.1
5,AACTGAAC,0.157
6,TACAGCAA,-0.0019
7,AACCCTTA,-0.00342
8,CCAGCTGA,-0.24
9,CATAAAAC,-0.0347
10,AAAATTCC,-0.197
11,GATGCGAC,0.2
12,GTTTCCCA,-0.0496
13,ACTTGCCT,-0.216
14,CACGAAGC,0.0604
15,CGCGGCAC,0.0802
16,CCGAGGAC,0.207
17,GAAACGTA,0.221
18,GTGGCGAA,0.0222
19,GAACAGCA,-0.083
20,ACAGTCGT,0.28
21,AAGCGACT,0.242
22,GCTCAACA,-0.0472
23,ATGACAAC,-0.0209
24,TGCATAAA,0.00876
25,AGGACCTC,-0.0323

row,Sequence,PBM E-score
1,GGTTGTCA,-0.195
2,AAGACTCT,-0.0807
3,ACGGGGTA,0.188
4,AGTTCCGA,0.226
5,ACTTCGTC,0.00917
6,GCATTTGA,0.11
7,CCGACTTC,-0.0231
8,CTTGCTGA,-0.204
9,CACCGCCC,0.085
10,CCTATAGG,-0.432
11,ACACGGAT,0.203
12,CGAGTGTA,0.262
13,CGCGAGTC,0.186
14,CTAGGACA,-0.321
15,AAGCTTCA,-0.0703
16,ACAATACT,-0.0129
17,CTTAATCA,0.016
18,AACGTTGC,0.121
19,AGCAGCGA,0.0533
20,ACGACATA,0.308
21,GCAAACCC,0.0386
22,AAACGGGT,0.319
23,GTAAGGGA,-0.0737
24,ATAGACGA,0.174
25,CCATGAAG,0.0231

row,Sequence,PBM E-score
1,GCGCGCCC,-0.172
2,GCGCACTA,0.0347
3,AAGTGAAA,-0.129
4,ACTATTGC,-0.0693
5,CTACAACA,-0.103
6,AGGATGTC,-0.112
7,GAAACATA,0.215
8,CGATGACA,0.082
9,CTGGCGGA,-0.243
10,CTAGCCCA,-0.374
11,CGCTCACA,0.18
12,AGGACCTG,-0.128
13,AGTTCAGA,-0.126
14,ATCAGCTA,-0.0785
15,CCGTCTGA,-0.0597
16,CCGTTTGA,0.243
17,ACTTAAGA,-0.057
18,GTGCGGCA,-0.0606
19,ACAATAGC,-0.16
20,TCAGGAGA,-0.0607
21,CCGTAACG,0.28
22,ACGGTATA,0.118
